Test results: ChEMBL document CHEMBL4888484, “Replenishing the malaria drug discovery pipeline: Screening and hit evaluation of the MMV Hit Generation Library 1 (HGL1) against asexual blood stage Plasmodium falciparum ,using a nano luciferase reporter read-out” (2022)
Hit rate of the full screen: of about 150,000 compounds, about 540 (0.36%) showed an effect of 50% or more. This is one part of the list.

Each compound was assayed on Plasmodium falciparum (assay: Primary screen in NF54 nanoGlo assay, in single point, at 2uM, 72h; a lower Z score goes with more inhibition). Details: timepoint 72 hour.
Format: functional, Erythrocyte

Row | Structure (SMILES) | % Inhibition | Z score
1 | CC1(C)[C@H]2CC=C(CN3CCn4nc(C#N)cc4C3)[C@@H]1C2 | 8% | -1.06
2 | O=C(Nc1nc(C(=O)NCc2cccc(C(F)(F)F)c2)cs1)c1cc(F)cc(F)c1 | -10% | 1.97
3 | Cc1ncn(CCNC(=O)c2ccccc2-n2cncn2)c1C | 12% | -1.56
4 | FC(F)(F)c1cccc(OCc2ccc(-c3nc4c([nH]3)CCNC4)cc2)c1 | 12% | -2.34
5 | Cc1noc(C)c1C(=O)N1CC[C@@H](n2c(=O)n(C)c3cccnc32)C1 | -11% | 1.39
6 | Cc1cc(S(=O)(=O)N2CCS(=O)(=O)C3COCCC32)c(C)s1 (stereo unspecified) | 16% | -2.05
7 | COc1ncccc1-c1csc(CN2CCOCC2)n1 | 4% | -0.52
8 | CCCN(C)C(=O)c1cc(-c2cnc(C(C)C)nc2)nc2c(C)c(C)ccc12 | 10% | -1.29
9 | O=C(NCCOCC(F)(F)F)c1csc2cncn12 | -6% | 0.96
10 | CCc1ccc(Cn2nc(CC3CC3)nc2CCC(=O)N(C)C)cc1 | 16% | -2.06
11 | CC(C)C[C@@H]1N[C@H](C(=O)NCc2ccco2)Cc2cn(Cc3nccn3C)c3cccc1c23 | -11% | 2.01
12 | CC1CC(C(=O)N2CCC(c3ncc[nH]3)C2)CC(C)(C)C1 (stereo unspecified) | -8% | 1.26
13 | CN(C)C(=O)Cc1ccc(F)c(Br)c1 | -8% | 0.79
14 | COC(=O)N(C)CC(=O)N(C)c1c(F)cccc1F | -16% | 1.66
15 | CN1C[C@@H](O)CNS(=O)(=O)c2ccccc2O[C@H]2CN(Cc3cncnc3)C[C@H]21 | -2% | 0.26
16 | Cc1cccc(CN[C@H]2CCOC2)c1Br | -18% | 3.16
17 | Cc1cccc(-n2nc3nc(NCCN4CCCCC4)nc(-c4ccc(Cl)cc4)c3c2N)c1 | -7% | 0.71
18 | NC(=O)c1cc(OC2CCN(CC(F)(F)F)CC2)ccn1 | -8% | 0.98
19 | O=C(Nc1ccn(-c2ccccc2)n1)c1ccccc1 | -6% | 0.7
20 | CCC(CC)C(=O)N1CC[C@H]2CC(=O)Nc3cccnc3OCC[C@H]2C1 | -12% | 2.32
21 | CN1CC(=O)N(CC(=O)N2CCC[C@H](c3nc4ccccc4s3)C2)C1=O | -4% | 0.37

Row | Structure (SMILES) | % Inhibition | Z score
22 | CCC(C)C(=O)C(=O)N1CCC(C2(CC)NC(=O)N(Cc3ccc4c(c3)OCO4)C2=O)CC1 (stereo unspecified) | -3% | 0.3
23 | COCCN(CCOC)C(=O)c1cc(C)nc2c1c(C)nn2C(C)(C)C | 1% | -0.13
24 | Clc1cccc(OCc2nc3ccccc3o2)c1Cl | -7% | 0.95
25 | COc1cncc(O[C@H]2CCN(C(=O)c3ccc(C#N)cc3)C2)n1 | -1% | 0.1
26 | c1ccc(-c2nnc(-c3ccncc3)nc2-c2ccccc2)cc1 | -7% | 0.61
27 | CCN(CC(F)(F)F)C(=O)C[C@@H]1C=CCC1 | -15% | 1.71
28 | COC(=O)c1ccc(NC(=O)c2cccc(-c3nc(-c4ccc(F)cc4)no3)c2)cc1 | -7% | 0.89
29 | Cc1cccc([C@@H](NC(=O)Cc2ccccc2C)C2CC2)n1 | 1% | -0.15
30 | CCn1c(=O)c(CCC(=O)NCc2ccccc2)nc2c(C)nn(-c3ccccc3)c21 | 6% | -0.89
31 | COc1cccc2c1N(C(=O)Cc1ccccc1)C(C)(C)c1ssc(=S)c1-2 | -13% | 1.48
32 | Cc1nc(C(=O)Nc2ccc(C(N)=O)cc2)c(-c2ccc(F)cc2)s1 | -6% | 1.16
33 | CC1=NO[C@](C)(C(=O)NCc2cc(C3CC3)[nH]n2)C1 | -8% | 0.84
34 | Cc1ccc(C(=O)N[C@@H]2CN(C3CCOCC3)C[C@H]2CO)cc1F | 1% | -0.17
35 | Cc1cc(=O)n(CC(=O)N2CCC(C)CC2)c(-c2ccc(F)cc2)n1 | 31% | -4.52
36 | COc1cccc2c1Oc1ncccc1N(C(=O)CCC(=O)NCCCN1CCCCC1)C2 | 12% | -1.56
37 | O=C(C1CCN(S(=O)(=O)c2cccc3nsnc23)CC1)N1CCC(Cc2nc(C3CCOCC3)no2)CC1 | -17% | 2.25
38 | CCCNC(=O)c1ccc(COc2ccc3c(c2)[C@H](c2cccc(C)c2)N(C(=O)C2CCCC2)CC3)o1 | -3% | 0.39
39 | O=C([C@H]1CCCN(c2ncnc3c2nc2n3CCCCC2)C1)N1CCCCCC1 | -10% | 1.61
40 | CCCOC[C@H]1CCN(C(=O)Cn2cnnn2)C1 | 0% | 0.06
41 | O=C(Nc1ccc2c(c1)C(F)(F)OC(F)(F)O2)N1CCOCC1 | -10% | 1.14
42 | O=C(NC[C@H]1Cn2c(-c3ccc(F)cc3)cnc2CO1)c1cccnc1 | 35% | -3.96

Row | Structure (SMILES) | % Inhibition | Z score
43 | Cc1ccc(-c2nnc(NC(=O)c3c(C)noc3C)[nH]2)o1 | -2% | 0.24
44 | Cc1nnnn1[C@@H](Cc1ccccc1)C(=O)NCc1nccs1 | -6% | 0.81
45 | COc1ccc(-c2cc(C(=O)N(Cc3ccncc3)CC(C)C)[nH]n2)cc1 | 2% | -0.28
46 | Cc1cccc(OC(=O)c2snnc2C)c1 | 0% | -0.05
47 | Cc1ccc(C(=O)Oc2ccc(N3CCCC3=O)cc2)cn1 | -12% | 1.66
48 | COC(=O)CC[C@H]1NC(=O)N(c2ccc(OCC(F)(F)C(F)F)nc2)C1=O | -9% | 1.48
49 | CN(Cc1ccc(-n2cccn2)cc1)c1cc(N2CCC(O)CC2)ncn1 | -6% | 1.21
50 | C[C@@H](C(=O)N(C)C)S(=O)(=O)Nc1cccnc1Nc1ccccc1 | -12% | 2.45
51 | COc1cccc(-c2ccc(N(C)CCO)nn2)c1F | -15% | 2.77
52 | COc1cc(C)c(-c2ccc(C(=O)N[C@@H](C)c3cnn(C)c3)cc2)cc1C | 11% | -1.24
53 | O=C(N[C@H]1CCN(C2CCOCC2)C1=O)c1ccnn1CC(F)F | -1% | 0.09
54 | CN1CCN(C(=O)c2ccc(-c3ccccc3F)o2)c2ccccc2C1 | -10% | 0.99
55 | C[C@@H](CC#N)N(C)c1nccc(C(F)(F)F)n1 | -6% | 0.73
56 | CO[C@@H](CNS(=O)(=O)CC(C)C)c1ccco1 | -10% | 2.06
57 | CCCn1cc(N[C@H]2CCN(c3c(F)cccc3F)C2=O)cn1 | 1% | -0.17
58 | CC(C)CCCNC(=O)c1cc(S(N)(=O)=O)oc1Cl | -1% | 0.17
59 | O=S1(=O)CCC(NCCC2CCCO2)c2cc(F)c(F)cc21 (stereo unspecified) | 31% | -4.48
60 | CC(C#N)CN(C)c1nc2c(N(C)CC(C)C#N)ncnc2s1 (stereo unspecified) | -1% | 0.18
61 | CC(=O)C[C@@]1(O)C(=O)N(CCCOc2ccc(Cl)cc2)c2ccc(C)cc21 | -7% | 0.86
62 | C[C@@H](CNC(=O)Nc1nc(C(F)(F)F)co1)c1nccs1 | 5% | -0.56
63 | CCCn1nc(C(=O)Nc2cccc(Cl)c2)cc1-c1ccc(Cl)s1 | -14% | 2.74

Row | Structure (SMILES) | % Inhibition | Z score
64 | CC1(C)C(=O)Nc2ccc(C(=O)NCc3ccc4c(c3)COC4)cc21 | -8% | 1.05
65 | O=C(Nc1cccc(F)c1)Nc1ccnn1C1CCN(Cc2cc[nH]n2)CC1 | -7% | 1.08
66 | Cn1cc(C(C)(O)CNC2CCCc3sccc32)cn1 (stereo unspecified) | -3% | 0.32
67 | COC[C@H](C)NCc1ccccc1C(F)(F)F | -9% | 1.73
68 | COc1cccc(CN2CC3(CCN(c4cc(OC)ncn4)CC3)CC2=O)c1 | 12% | -1.56
69 | COCc1nc(-c2ccc(C)cc2)nc(-c2ccc(C)cc2)n1 | 0% | 0.03
70 | Cc1cc(=O)cc(O)n1Cc1nnc2ccccn12 | -9% | 1.17
71 | COc1ccc(CN2CCN(S(=O)(=O)c3ccc4c(c3)C(C)(C)C(=O)N4C)CC2)c(OC)c1OC | -6% | 1.08
72 | C[C@@H](c1ccon1)N(C)C(=O)c1cnc(Cc2c(Cl)cccc2Cl)nc1O | 0% | -0.02
73 | COc1ccc(N2CCN(C(=O)Cn3cnc4c(-c5cccc(OC)c5)cn(C)c4c3=O)CC2)cc1 | -5% | 0.76
74 | O=C(COc1cccc(Cl)c1)NC[C@@H]1C[C@H](F)CN1 | 15% | -1.92
75 | O=C(N[C@@H](Cn1nccn1)c1ccccc1)c1cc(Br)ccc1Cl | 57% | -6.89
76 | Brc1cnc(N[C@H]2CCCc3cn[nH]c32)nc1 | -14% | 1.92
77 | CCOC(=O)C(Cc1ccccn1)C(=O)OCC | 4% | -0.48
78 | O=C(NC[C@H]1CCCO1)c1cc2n(n1)CCCO2 | -18% | 2.79
79 | CC(C)[C@@H](C(=O)NCCn1cnnc1C1CC1)N1CCCCC1 | -14% | 1.91
80 | CCCNc1ncc(CN2CC[C@H](NC(=O)c3cccnc3)[C@@H](O)C2)cn1 | -8% | 0.78
81 | C(=C\c1nc2sc(/C=C/c3ccccc3)nc2s1)/c1ccccc1 | -12% | 1.56
82 | Cc1nc(N2CCc3c(c(C(N)=O)nn3C)C2)ccc1Cl | 2% | -0.51
83 | Nc1c2c(-c3cccc(F)c3)nc(N3CCN(C(=O)[C@@H]4CCCO4)CC3)nc2nn1-c1cc(F)ccc1F | -7% | 1.22
